Results from the RNAGym collection of RNA variant scans (doi:10.1101/gad.245936.114).
Variants at the background level are over-represented here.

B1: tRNA (parent)
chain: CUCUCGGUAGCCAAGUUGGUUUAAGGCGCAAGACUUUAAUUUAUCACUACGAAAUCUUGAGAUCGGGCGUUCGACUCGCCCCCGGGAGAUUUUUUCCUCGAGCAA

Variants of: B1
Assay: nonsense suppression (GFP-seq) (ratio to wild type); higher = more function; SUP4oc tRNA, yeast GFP reporter sort-seq
Procedure, shortened: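 Nonsense suppression (GFPSEQ) is the median GFP/RFP ratio of each sorting bin, weighted by the variant's estimated share of cells in that bin and expressed relative to the unmutated parent tRNA. Yeast strains carried genome-integrated variants of an ochre-suppressor tRNA from a library with ~3% random mutations, plus a galactose-driven GFP ochre reporter and RFP, and were grown in raffinose/galactose medium containing 80 mg/L adenine. Cells were sorted into GFP/RFP bins, each bin was Illumina-sequenced (phred ≥30), and variants were kept only with ≥100 reads and ≥30 cells.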

Nonsense suppression, 0.205:
A62G C75G

Nonsense suppression, 0.748:
U63A U76C

Nonsense suppression, 0.247:
G61C A87G

Nonsense suppression, ≤ 0.026:
G66C U71G C83G
C64U G73U A89C
A62G C79G
C64A C83A
C64A C83G
G66C A87U
G65C G86U
G65C G86C
G61U C68U C81G
G61C G78C
G66U A74C G85C
A62G C80G
U63A G84A
A62C G86A
U63A U76A
C64A
C64U
C64G
G66U C79G
U63A U70C
A62C U70G
A62C U70C
C64U G67U
G61A A62U C72G
G67A C82A G88U
C64U U76C
A62G U70C C81U
G66C U71G
G65C G67A G69A
C64U G65A C72A
G61U C83G
U63A G66U U71A A87G
A62C G67C
A62C G67A
G65A G69A C80U
U63C G66A C79G
G61U C80G
G67C G78C
A62G G73C U76C
U63G C83G
G67C G84C
A62C C64A
G61C G69C C79G G84C
G65A G86A
G61A U63A G88U
G65C G73C
C64A G65C
G61A U70C
C64G C82G
U63C C72A
G66U U76C
G66U U76A
A60U G66U
A60U G66C
G66U C79U G86A
G61C G73A C83G
G66C C82U
C64A C77G
G66A U71G
G66A U71A
G61C G86U
G67A A87C
A62C U63C C68A U70A
C64A G86C G88C
G67A G86C
G65U U70G U76G C79A
G61A A62G A74C
A60U G67U U71G
A62C G65U C72G
C64G G66C
G61A A62U A87U
A62U C68G G85A
G65C U76G
A62C U63G
G61A G65U
C64G C77U
C64G C77G
U63A C79G C80U
G61A C77A
A62C A87U
A62C C72U
C64U C72A
G65C G67A
G65C G67C
G61U U63A U76C
C64A G78U
U63A G67U C83G
A62G G65C
A60U U71A C75U C82A
U63G U76A G88C
A62U C64A G84C
G66U G78C
A62G C80U C81G
U63C U71C A74G
A62G U63G G69U C83U
A62C G73A
C64U A89G
A62U C68A C81A
A62U C75G G85U
G61C C80U A87G
G66U C82A
G61C C82G
G61A C83G A87G
A60U U76A A87G A89U
G65C C79G C83U G88A
U63A G84C G85A
A62C C68G
U63A G69A
G65C G88U
G61U U71G
G65U G84U
G61C A62U A74U G88A
C64G G67U
G66U U76A G84U
U63G C79G G85C
A62U U70A
A62G G73U G86A
G66A G67A U70C C79G G84U
U63C A74C
G67A G73C
G67A G73A
A60U U70A C75A U76A
U63G G69C
G67A A89G
A62C C82G
C64A U76A C81G
G67C A89C
G65U G66U A74U
A60U U71C
A62U G69A
G65U C68U
G65U C68A
G67C G69A A74C
G65C U71G
A62U C64U
G65A U70A
G65A U70C
G66U U71G
A60U C79U C80A
A62U U71G
G66C G69A U71C A74C A89G
G67A C77G
C64U C72A A87G
G65A C80G
A62G A74U G86U
G67A U71C
G67A U70C C81G
G65A G67C
G65C C82G
A62U C64U C80G
A62G G73U

Nonsense suppression, 0.248:
G61C C81G

Nonsense suppression, 0.3:
G61C A87U

Nonsense suppression, 0.793:
G65C G66C U76C

Nonsense suppression, 0.227:
G61A U63G

Nonsense suppression, 0.202:
G61C C79U

Nonsense suppression, 0.197:
G61A A87G

Nonsense suppression, 0.0366:
G61A C68G

Nonsense suppression, 0.0444:
U63G G67A

Nonsense suppression, 0.0361:
G61C A87C

Nonsense suppression, 0.433:
U63G U76A

Nonsense suppression, 0.304:
G61A U63A

Nonsense suppression, 0.0291:
G61C C72G

Nonsense suppression, 0.728:
G61A U63C
